Test results published in PubChem BioAssay AID504832 (National Center for Advancing Translational Sciences (NCATS), 2011).
Hit rate of the full screen: of about 310,000 compounds, about 18,000 (5.8%) were called active. The inconclusive results got no clear call from the source; some entries with a clear call stand among them for comparison. Calls follow the shape of the dose curve; as a rule, active = well fitted inhibition curve with a large enough effect; inconclusive = small, poorly fitted or top-dose-only effect, or another doubt; inactive = no such curve, though single readings can be large or run the other way. No potency is given beside an inconclusive call; the fits are too rough.

Test: Primary qHTS for delayed death inhibitors of the malarial parasite plastid, 48 hour incubation
Settings: P. falciparum luciferase growth in erythrocytes; series mostly up to 28.7 µM
In short: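 Erythrocytes infected with P. falciparum carrying an integrated firefly luciferase reporter (2% hematocrit, 0.1% parasitemia final) were exposed to compounds in RPMI 1640 with 0.5% Albumax at 37 C, 5% CO2. Growth inhibition was scored as reduced luminescence.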
Potency is read from the fitted curve at half-maximal effect; tags tell the direction and shape of the fitted curve.

SMILES	Potency
O=C(CN1CCCC1)Nc1ccccc1Sc1ccc(Cl)cc1	inconclusive [inhibitor, partial curve]
COc1ccc(C2(C(=O)NCCc3ccccc3)CCCC2)cc1OC	inconclusive [inhibitor, partial curve, poor fit]
Cc1cnc(NC(=O)NCC2CCCC(CNC(=O)Nc3ncc(C)s3)C2)s1 (stereo not drawn)	inconclusive [inhibitor, single point]
Cn1c(=O)c2c(nc(N3CCNCC3)n2Cc2ccccc2Cl)n(C)c1=O	inactive
O=c1oc2ccccc2c(N2CCCCC2)c1CN1CCCC1	inconclusive [inhibitor, full curve]
CCCCc1c(C)nc2ccccc2c1SCCC#N	inconclusive [inhibitor, single point]
COc1ccc(N(CC(=O)NC2CCCC2)C(=O)CCC(=O)Nc2nc(C)cs2)cc1OC	inconclusive [inhibitor, single point]
CCOC(=O)C1=C(C)NC(SC)=C(C#N)C1CC(C)C (stereo not drawn)	active: 1.65 µM
CCN1CCCC1CNC(=O)c1cc2c(-c3cccc(OC)c3)nn(C)c2s1 (stereo not drawn)	inconclusive [inhibitor, full curve]
COc1ccc(/C=C/C(=O)NCCc2ccc(OC)c(OC)c2)cc1	inconclusive [inhibitor, partial curve, poor fit]
CCn1nnnc1SCC(=O)Nc1cc(OC)cc(OC)c1	inconclusive [inhibitor, single point]
COc1cccc(-c2nc(S(=O)(=O)c3ccccc3)c(N3CCOCC3)o2)c1	inconclusive [inhibitor, single point]
Oc1ccccc1-c1ccccc1	inactive
Cc1ccc(C)c(S(=O)(=O)Nc2ccc3[nH]c(=O)[nH]c3c2)c1	inactive
Cc1onc(-c2ccccc2)c1C(=O)N1CCN(S(=O)(=O)c2ccc(OC(F)(F)F)cc2)CC1	inactive
Cc1ccc(C2CC(=O)C=C(Nc3ccc(Cl)cc3)C2)cc1 (stereo not drawn)	active: 14.7 µM
CCOC(=O)c1ccc(-n2c(CN3CCN(CCO)CC3)nc3ccc([N+](=O)[O-])cc3c2=O)cc1	inactive
COc1ccc(C(CCNCc2ccc(OC(C)C)cc2)c2ccccc2OC)cc1 (stereo not drawn)	active: 11.7 µM
COc1ccccc1NC(=O)Cn1ccn(-c2cccc3ccccc23)c(=O)c1=O	inconclusive [inhibitor, single point]
COc1ccccc1NC(=O)c1csc2c1CCC(C)C2 (stereo not drawn)	inactive
COc1ccc(-c2nn(-c3ccccc3)cc2/C=N/N=C(N)N)cc1OC	active: 1.65 µM
CN1C(=O)c2ccccc2N(C)C1c1ccccc1Cl (stereo not drawn)	inactive
CCc1c(C)nc(SCC(=O)N2CCCCC2)[nH]c1=O	inactive
O=C(NCc1ccccc1C(F)(F)F)C1CC(c2ccc(C(F)(F)F)cc2)=NO1 (stereo not drawn)	inconclusive [inhibitor, single point]
Cc1ccc(Cl)cc1-n1c(SCC(=O)NCCC2=CCCCC2)nc2n[nH]c(C)c2c1=N	inconclusive [inhibitor, partial curve, poor fit]

SMILES	Potency
CCN1CCN(C(=O)C2c3cc(OC)c(OC)cc3C(=O)N(C)C2c2ccc(SC)cc2)CC1 (stereo not drawn)	inconclusive [inhibitor, single point]
C/C(N)=C(/C#N)C(=O)CSc1nnc(-c2ccccc2)n1C	inactive
CCOC(=O)N1CCN(C(=O)c2ccccc2NS(=O)(=O)c2ccc(C)cc2)CC1	inactive
O=C(Cn1c2ccc(F)cc2c2nc3n(c(=O)c21)CCS3)NCC1CCCO1 (stereo not drawn)	inactive
COc1ccc(Cc2nn3c(-c4cc(OC)c(OC)c(OC)c4)nnc3s2)cc1	inconclusive [inhibitor, partial curve]
O=C(NCC1CCCO1)c1ccccc1-c1nc(-c2ccc(Cl)cc2)no1 (stereo not drawn)	inactive
CN(C(=O)COC(=O)Cc1c(F)cccc1Cl)c1c(N)n(Cc2ccccc2)c(=O)[nH]c1=O	inconclusive [inhibitor, single point]
Cc1ccc(-c2cn(CCC(=O)O)c(-c3ccc(Cl)nc3)n2)cc1	inactive
CC(=O)c1c(C)n(-c2ccc(C)cc2C)c2ccc(O)cc12	inconclusive [inhibitor, partial curve]
C=C(C)C(=O)Nc1nnc(-c2cccs2)s1	inactive
CC(C)(C)c1nc2ccccc2c2nnc(SCC(=O)NCc3ccco3)n12	inconclusive [inhibitor, single point]
CCN(CC)CCC(c1ccc(N(C)C)cc1)c1c(O)cc(OC)cc1OC (stereo not drawn)	active: 1.17 µM
CCCCNC(=S)N1CCn2cccc2C1c1cccnc1 (stereo not drawn)	inconclusive [inhibitor, partial curve]
CCOc1ccccc1C(=O)N/N=C/c1coc2ccc(Cl)cc2c1=O	inactive
COC(=O)Cn1c(=O)c2c(n(Cc3ccccc3)c1=O)N/C(=C/c1ccc(OC)cc1)C2=O	inconclusive [inhibitor, partial curve]
COc1ccccc1CNC(=O)c1cnc2ccccn2c1=O	inactive
Oc1ccc(NC(=S)N=Nc2c(O)[nH]c3ccc(Br)cc23)cc1	inconclusive [inhibitor, partial curve]
CCCCc1nnc(NC(=O)CCN2C(=O)C3CC=CCC3C2=O)s1 (stereo not drawn)	inconclusive [inhibitor, single point]
O=P(c1ccccc1)(c1ccccc1)C(c1ccccn1)P(=O)(c1ccccc1)c1ccccc1	inconclusive [inhibitor, partial curve, poor fit]
CCOC(=O)CC(NC(=O)CCS(=O)(=O)c1ccc2c(c1)n(C)c(=O)c(=O)n2C)c1ccc(C)cc1 (stereo not drawn)	inactive
COC(=O)c1cc(Cl)c(NC(=O)C(C)C)cc1OC	inactive
CCOC(=O)c1c(CN(C)C)n(C)c2c(O)c(N=NC(N)=O)c3ccc(Br)cc3c12	active: 0.415 µM
O=C(Nc1nc2ccccc2n1Cc1ccccc1)c1ccco1	active: 13.1 µM
CC(=O)NC(c1ccc2ccccc2c1)c1ccc2cccnc2c1O (stereo not drawn)	inconclusive [inhibitor, partial curve, poor fit]
COC(=O)CCC[C@H]1CC2(C[C@H](CCCO[Si](C)(C)C(C)(C)C)N1C(=O)OC(C)(C)C)OCCO2	inconclusive [inhibitor, single point]

SMILES	Potency
Cc1ccccc1NC(=O)CSc1nc2ccc(Nc3nc(N4CCOCC4)nc(N4CCOCC4)n3)cc2s1	inactive
COC(=O)c1onc(-c2ccccc2)c1C(=O)OC	inactive
O=c1[nH]c2ccccc2n1CCCSCCCn1c(=O)[nH]c2ccccc21	inconclusive [inhibitor, partial curve, poor fit]
CC(=O)c1cccc(Nc2ccc(-c3ccccc3F)nn2)c1	inactive
O=C(NN1C(=O)NC2(CCCCC2)C1=O)c1ccc(-c2ccc([N+](=O)[O-])cc2)o1	inactive
CCCOc1ccc(C(=O)Nc2ccc(N3CCN(C(C)=O)CC3)cc2)cc1	inconclusive [inhibitor, partial curve, poor fit]
CC(C)(C)c1ccc(C(=O)N2CCN(c3ncccn3)CC2)cc1	inactive
Cc1cc(C(=O)CCC(=O)Nc2ncccc2C)c(C)s1	inactive
CN(C)S(=O)(=O)c1cccc(NC(=O)CSc2nc3c(cc2C#N)C(=O)CC(C)(C)C3)c1	active: 9.28 µM
O=C(O)c1cc(N/N=C/c2c(O)ccc3ccccc23)ccc1Cl	inactive
COc1ccccc1C(=O)Nc1ccnn1C1CCN(C(=O)C(C)(C)C)CC1	inactive
Cc1onc(-c2c(Cl)cccc2Cl)c1/C(N)=N/OC(=O)N(C)C	inconclusive [inhibitor, full curve, poor fit]
CCC(C)(C)NC(=O)C(c1ccc(F)cc1)N(Cc1cccc(OC)c1)C(=O)c1cnccn1 (stereo not drawn)	inconclusive [inhibitor, partial curve, poor fit]
O=C(/C(=C/c1ccccc1)n1cncn1)c1ccc(Cl)cc1Cl	inconclusive [inhibitor, full curve]
COc1ccc(N(C)S(=O)(=O)c2cccc(C(=O)N3CCN(Cc4ccc5c(c4)OCO5)CC3)c2)cc1	inconclusive [inhibitor, partial curve]
CCN(CC)c1nc2ccccc2nc1C(C#N)C(=O)NCCc1ccccc1 (stereo not drawn)	inconclusive [inhibitor, full curve]
O=C(NC(=S)Nc1ccc(N2CCOCC2)cc1)c1ccc2c(c1)OCCO2	inactive
CC1CCCN(CC(O)COCc2ccc3c(c2)OCO3)C1 (stereo not drawn)	inconclusive [inhibitor, single point]
Cc1ccc(NC(=O)CCNS(=O)(=O)c2ccc3c(c2)oc(=O)n3C)c(C)c1	inconclusive [inhibitor, partial curve, poor fit]
Cc1ccc(C(=O)NCc2ccccc2F)cc1S(=O)(=O)N1CCCC1	inconclusive [inhibitor, partial curve, poor fit]
CC1CCCCN1S(=O)(=O)c1ccc(C(=O)Nc2sccc2C(N)=O)cc1 (stereo not drawn)	active: 9.28 µM
COc1cc(/C=N/Nc2nc(Nc3ccccc3)nc(N3CCCCC3)n2)ccc1OCC(=O)O	inactive
Cc1ccc(S(=O)(=O)NCc2ccccc2)cc1C(=O)N1CC(C)CC(C)C1 (stereo not drawn)	inconclusive [inhibitor, single point]
